The list shows a part of the results. No stated cut-off is given here; in the data, active = 3.2 or more and inactive = the rest. Only a few entries rise above the background.
Target: SHP2 C-SH2 domain E139D
Assay: enrichment score (SH2-bound / input frequency) (ratio); bacterial display of known human phosphotyrosine sites (pTyr-Var adds point mutants) read by sequencing; higher = stronger binding; tyrosines were phosphorylated by kinases first
Conditions: peptide library: pTyr-Var
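Further: displayed peptides selected on beads carrying the immobilized SH2 domain, with library peptides lacking any tyrosine serving as negative controls.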

Enrichment score, inactive:
PADSGYPAYLG [ATP6V1A_Y374] 0.97, PADSGYPAFLG [ATP6V1A_Y374_YF] 0.496, INQGPYENRSV [ATP6V1B1_Y462] 0.61, DRIVNYSRASV [ATP7A_Y1459_I1464V] 0.804, VAVTKYCKEEL [ATP7B_Y1078] 0.941, VVVTKYCKEEL [ATP7B_Y1078_A1074V] 1.13, VAVTKYCKEEF [ATP7B_Y1078_L1083F] 1, NIEPIYLNMLL [ATR_Y317_V316I] 0.623, CKLYQYYLDHL [ATRX_Y1849] 1.06, CKLFQYFLDHL [ATRX_Y1849_YF] 2.95, KNCFKYFMSDD [ATRX_Y203_YF] 1.12, NCFKYYMSDDI [ATRX_Y204] 1.1, NSFKYYMSDDI [ATRX_Y204_C200S] 0.812, NCFKFYMSDDI [ATRX_Y204_YF] 0.954, CRAVKYLQMVG [AVPR2_Y117] 0.653, YRAVKYLQMVG [AVPR2_Y117_C112Y] 0.83, CRAVKYLQMVD [AVPR2_Y117_G122D] 0.705, QMVGMYASSYM [AVPR2_Y124] 0.687

Target: SHP2 C-SH2 domain wild-type
Assay: as above
Conditions: peptide library: pTyr-Var

Enrichment score, inactive:
PADSGYPAYLG [ATP6V1A_Y374] 1.1, PADSGYPAFLG [ATP6V1A_Y374_YF] 0.795, INQGPYENRSV [ATP6V1B1_Y462] 0.57, DRIVNYSRASV [ATP7A_Y1459_I1464V] 1.09, VAVTKYCKEEL [ATP7B_Y1078] 1.05, VVVTKYCKEEL [ATP7B_Y1078_A1074V] 1.2, VAVTKYCKEEF [ATP7B_Y1078_L1083F] 0.891, NIEPIYLNMLL [ATR_Y317_V316I] 0.914, CKLYQYYLDHL [ATRX_Y1849] 1.26, CKLFQYFLDHL [ATRX_Y1849_YF] 2.9, KNCFKYFMSDD [ATRX_Y203_YF] 0.979, NCFKYYMSDDI [ATRX_Y204] 1.05, NSFKYYMSDDI [ATRX_Y204_C200S] 0.725, NCFKFYMSDDI [ATRX_Y204_YF] 1.02, CRAVKYLQMVG [AVPR2_Y117] 0.687, YRAVKYLQMVG [AVPR2_Y117_C112Y] 1.02, CRAVKYLQMVD [AVPR2_Y117_G122D] 0.783, QMVGMYASSYM [AVPR2_Y124] 0.816

Target: SHP2 N-SH2 domain L43F
Assay: as above
Conditions: peptide library: pTyr-Var

Enrichment score, inactive:
PADSGYPAYLG [ATP6V1A_Y374] 1, PADSGYPAFLG [ATP6V1A_Y374_YF] 0.92, INQGPYENRSV [ATP6V1B1_Y462] 0.647, DRIVNYSRASV [ATP7A_Y1459_I1464V] 0.808, VAVTKYCKEEL [ATP7B_Y1078] 0.648, VVVTKYCKEEL [ATP7B_Y1078_A1074V] 1.14, VAVTKYCKEEF [ATP7B_Y1078_L1083F] 1.03, NIEPIYLNMLL [ATR_Y317_V316I] 0.627, CKLYQYYLDHL [ATRX_Y1849] 0.939, CKLFQYFLDHL [ATRX_Y1849_YF] 2.68, KNCFKYFMSDD [ATRX_Y203_YF] 1, NCFKYYMSDDI [ATRX_Y204] 1.08, NSFKYYMSDDI [ATRX_Y204_C200S] 0.766, NCFKFYMSDDI [ATRX_Y204_YF] 1.09, CRAVKYLQMVG [AVPR2_Y117] 0.571, YRAVKYLQMVG [AVPR2_Y117_C112Y] 1.09, CRAVKYLQMVD [AVPR2_Y117_G122D] 0.959, QMVGMYASSYM [AVPR2_Y124] 0.96

Target: SHP2 N-SH2 domain T42A
Assay: as above
Conditions: peptide library: pTyr-Var

Enrichment score, inactive:
PADSGYPAYLG [ATP6V1A_Y374] 0.697, PADSGYPAFLG [ATP6V1A_Y374_YF] 0.616, INQGPYENRSV [ATP6V1B1_Y462] 0.577, DRIVNYSRASV [ATP7A_Y1459_I1464V] 0.952, VAVTKYCKEEL [ATP7B_Y1078] 0.945, VVVTKYCKEEL [ATP7B_Y1078_A1074V] 0.852, VAVTKYCKEEF [ATP7B_Y1078_L1083F] 0.707, NIEPIYLNMLL [ATR_Y317_V316I] 0.716, CKLYQYYLDHL [ATRX_Y1849] 0.836, CKLFQYFLDHL [ATRX_Y1849_YF] 2.26, KNCFKYFMSDD [ATRX_Y203_YF] 0.934, NCFKYYMSDDI [ATRX_Y204] 0.757, NSFKYYMSDDI [ATRX_Y204_C200S] 0.694, NCFKFYMSDDI [ATRX_Y204_YF] 0.727, CRAVKYLQMVG [AVPR2_Y117] 1.41, YRAVKYLQMVG [AVPR2_Y117_C112Y] 3.01, CRAVKYLQMVD [AVPR2_Y117_G122D] 1.43, QMVGMYASSYM [AVPR2_Y124] 0.724

Target: SHP2 N-SH2 domain T52S
Assay: as above
Conditions: peptide library: pTyr-Var

Enrichment score, inactive:
PADSGYPAYLG [ATP6V1A_Y374] 0.976, PADSGYPAFLG [ATP6V1A_Y374_YF] 0.744, INQGPYENRSV [ATP6V1B1_Y462] 0.585, DRIVNYSRASV [ATP7A_Y1459_I1464V] 0.94, VAVTKYCKEEL [ATP7B_Y1078] 0.808, VVVTKYCKEEL [ATP7B_Y1078_A1074V] 0.987, VAVTKYCKEEF [ATP7B_Y1078_L1083F] 0.97, NIEPIYLNMLL [ATR_Y317_V316I] 0.634, CKLYQYYLDHL [ATRX_Y1849] 0.992, CKLFQYFLDHL [ATRX_Y1849_YF] 2.77, KNCFKYFMSDD [ATRX_Y203_YF] 0.668, NCFKYYMSDDI [ATRX_Y204] 0.867, NSFKYYMSDDI [ATRX_Y204_C200S] 0.681, NCFKFYMSDDI [ATRX_Y204_YF] 0.978, CRAVKYLQMVG [AVPR2_Y117] 0.687, YRAVKYLQMVG [AVPR2_Y117_C112Y] 1.18, CRAVKYLQMVD [AVPR2_Y117_G122D] 0.806, QMVGMYASSYM [AVPR2_Y124] 0.892

Target: SHP2 N-SH2 domain wild-type
Assay: as above
Conditions: peptide library: pTyr-Var

Enrichment score, inactive:
PADSGYPAYLG [ATP6V1A_Y374] 0.918, PADSGYPAFLG [ATP6V1A_Y374_YF] 0.725, INQGPYENRSV [ATP6V1B1_Y462] 0.585, DRIVNYSRASV [ATP7A_Y1459_I1464V] 0.917, VAVTKYCKEEL [ATP7B_Y1078] 1.17, VVVTKYCKEEL [ATP7B_Y1078_A1074V] 1.26, VAVTKYCKEEF [ATP7B_Y1078_L1083F] 1.09, NIEPIYLNMLL [ATR_Y317_V316I] 0.831, CKLYQYYLDHL [ATRX_Y1849] 1.57, CKLFQYFLDHL [ATRX_Y1849_YF] 2.63, KNCFKYFMSDD [ATRX_Y203_YF] 0.961, NCFKYYMSDDI [ATRX_Y204] 1.01, NSFKYYMSDDI [ATRX_Y204_C200S] 1.06, NCFKFYMSDDI [ATRX_Y204_YF] 1.26, CRAVKYLQMVG [AVPR2_Y117] 0.681, YRAVKYLQMVG [AVPR2_Y117_C112Y] 0.622, CRAVKYLQMVD [AVPR2_Y117_G122D] 0.921, QMVGMYASSYM [AVPR2_Y124] 0.852

Reference: the supplement of paper PMC10369915
